The campaign covered roughly 310,000 compounds. About 14,000 (4.5%) showed an effect of 50% or more. Effects have a minus sign here. This is one part of the list.
biological target: human ether-à-go-go-related gene (hERG) potassium channel (human, UniProt Q12809); test: primary screen, population patch clamp on CHO cells stably expressing hERG
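Further: peak tail current of the secondary pulse compared with the same well before compound.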

human ether-à-go-go-related gene (hERG) potassium channel, sequence (Q12809 whole entry, looked up): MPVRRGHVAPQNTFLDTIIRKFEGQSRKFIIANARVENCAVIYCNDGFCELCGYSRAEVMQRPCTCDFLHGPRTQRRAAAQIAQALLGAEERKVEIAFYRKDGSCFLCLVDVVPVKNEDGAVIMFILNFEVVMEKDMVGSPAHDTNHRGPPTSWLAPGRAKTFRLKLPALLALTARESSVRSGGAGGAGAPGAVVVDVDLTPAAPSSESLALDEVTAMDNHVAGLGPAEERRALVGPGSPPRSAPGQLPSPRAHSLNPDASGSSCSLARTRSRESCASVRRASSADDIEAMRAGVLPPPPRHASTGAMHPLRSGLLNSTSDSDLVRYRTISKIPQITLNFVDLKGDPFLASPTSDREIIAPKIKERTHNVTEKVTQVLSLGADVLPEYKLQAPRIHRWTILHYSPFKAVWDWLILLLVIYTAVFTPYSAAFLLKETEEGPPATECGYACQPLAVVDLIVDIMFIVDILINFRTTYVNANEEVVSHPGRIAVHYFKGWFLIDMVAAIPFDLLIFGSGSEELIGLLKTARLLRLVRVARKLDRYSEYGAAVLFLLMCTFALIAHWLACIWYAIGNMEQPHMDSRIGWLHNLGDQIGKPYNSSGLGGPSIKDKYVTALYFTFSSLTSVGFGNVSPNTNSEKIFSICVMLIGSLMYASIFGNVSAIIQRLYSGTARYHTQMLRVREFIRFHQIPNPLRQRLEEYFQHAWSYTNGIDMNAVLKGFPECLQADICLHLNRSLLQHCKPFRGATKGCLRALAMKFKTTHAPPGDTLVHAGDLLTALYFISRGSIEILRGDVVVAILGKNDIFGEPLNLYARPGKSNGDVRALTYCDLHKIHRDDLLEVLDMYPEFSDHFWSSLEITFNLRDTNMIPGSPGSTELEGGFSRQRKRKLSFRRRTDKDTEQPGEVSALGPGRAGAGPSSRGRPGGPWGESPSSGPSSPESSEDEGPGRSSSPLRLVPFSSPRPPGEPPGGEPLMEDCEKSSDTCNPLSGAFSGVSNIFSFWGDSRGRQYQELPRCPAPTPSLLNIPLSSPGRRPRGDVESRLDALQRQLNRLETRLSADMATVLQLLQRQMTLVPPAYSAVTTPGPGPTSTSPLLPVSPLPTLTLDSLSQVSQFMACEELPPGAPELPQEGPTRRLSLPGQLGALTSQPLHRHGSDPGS

Q: With `O=C(O/N=C(\c1ccccc1)c1ccccn1)c1cccc2ccccc12` as the compound, how does the “hERG current change (%, negative = inhibition) at 10uM” value read?
A: -9.62%

Q: `CC1(C)Cc2cccc(OCC(=O)NCCOc3ccccc3)c2O1` was tested. Which “hERG current change (%, negative = inhibition) at 10uM” value did it give?
A: -7.43%

Q: Which “hERG current change (%, negative = inhibition) at 10uM” value does the source give for `CCOc1ccc(-n2cnnn2)cc1S(=O)(=O)NCc1ccccc1` here?
A: -71%

Q: Which “hERG current change (%, negative = inhibition) at 10uM” value does the source give for `O=C(O)c1ccc(-c2nc3ccccc3s2)o1` here?
A: 19.4%

Q: How did the “hERG current change (%, negative = inhibition) at 10uM” value turn out when `CCC1=NN(C(=O)c2ccc(Br)cc2)C(O)(c2ccccc2)C1` (stereo not drawn) was run?
A: 0.256%

Q: Which “hERG current change (%, negative = inhibition) at 10uM” value does the source give for `Nc1ccc(C(=O)NCC2(c3ccccc3)CCCC2)cc1` here?
A: -21.8%

Q: Which “hERG current change (%, negative = inhibition) at 10uM” value does the source give for `CCOc1cc(/C=N/NC(=O)C(=O)N2CCCC2)ccc1O` here?
A: 8.18%

Q: `CC1CC(C)CN(S(=O)(=O)c2ccc(C(=O)N3CC(C)OC(C)C3)cc2)C1` (stereo not drawn) was tested. Which “hERG current change (%, negative = inhibition) at 10uM” value did it give?
A: 3.13%

Q: For `CCc1cccc(NS(=O)(=O)c2ccc3c(c2)NC(=O)C(C)S3)c1` (stereo not drawn), which “hERG current change (%, negative = inhibition) at 10uM” value is on record?
A: 18.8%

Q: With `N#C/C(=C\c1ccccc1OCc1ccc(C(=O)O)cc1)C(=O)Nc1ccc(O)cc1` as the compound, how does the “hERG current change (%, negative = inhibition) at 10uM” value read?
A: 15.4%

Q: For `Cc1ccccc1N1C(=O)c2ccccc2C1Nc1cccnc1` (stereo not drawn), which “hERG current change (%, negative = inhibition) at 10uM” value is on record?
A: 6.57%

Q: For `c1ccc(Cc2nn3c(Cn4nnc5ccccc54)nnc3s2)cc1`, which “hERG current change (%, negative = inhibition) at 10uM” value is on record?
A: -14.6%

Q: `Cn1cccc1CC(=O)N/N=C/c1ccc(C(C)(C)C)cc1` was tested. Which “hERG current change (%, negative = inhibition) at 10uM” value did it give?
A: 6.27%

Q: With `CCc1ccc(/C=C/C(=O)c2cc(Br)ccc(=O)c2O)cc1` as the compound, how does the “hERG current change (%, negative = inhibition) at 10uM” value read?
A: 11%

Q: For `Cc1ccc(CNc2cnccn2)s1`, which “hERG current change (%, negative = inhibition) at 10uM” value is on record?
A: 31.7%

Q: `CC(C)(C)c1ccc(S(=O)(=O)N2CCN(C3CCCC3)CC2)cc1` was tested. Which “hERG current change (%, negative = inhibition) at 10uM” value did it give?
A: 3.2%

Q: How did the “hERG current change (%, negative = inhibition) at 10uM” value turn out when `CCOC(=O)N1CCN(C(=O)C(C)N(c2ccccc2)S(C)(=O)=O)CC1` (stereo not drawn) was run?
A: 25.1%

Q: `CC1CCN(S(=O)(=O)CCNC(=O)c2ccccc2)CC1` was tested. Which “hERG current change (%, negative = inhibition) at 10uM” value did it give?
A: -5.73%

Q: With `O=C(O)C[C@H]1c2ccc(C(F)(F)F)cc2S(=O)(=O)N1C1CCCCC1` as the compound, how does the “hERG current change (%, negative = inhibition) at 10uM” value read?
A: 9.71%

Q: With `CSc1ncc(CO)n1Cc1ccccc1` as the compound, how does the “hERG current change (%, negative = inhibition) at 10uM” value read?
A: 34.9%

Q: With `Cc1ccc(C(=O)C2=C(O)C(=O)N(Cc3cccnc3)C2c2ccc(Br)cc2)o1` (stereo not drawn) as the compound, how does the “hERG current change (%, negative = inhibition) at 10uM” value read?
A: 8%

Q: For `Cc1ccc(-c2cc(NC(=O)c3ccccc3[N+](=O)[O-])n[nH]2)cc1`, which “hERG current change (%, negative = inhibition) at 10uM” value is on record?
A: 27.8%

Q: For `COC(=O)C1Cc2c([nH]c3ccccc23)CN1C(C)=O` (stereo not drawn), which “hERG current change (%, negative = inhibition) at 10uM” value is on record?
A: 15.6%

Q: For `COc1cc(OC)nc(NC(C)=O)n1`, which “hERG current change (%, negative = inhibition) at 10uM” value is on record?
A: 5.3%

Q: `Cc1ccc(NC(=O)c2ccc(COc3ccccc3)o2)nc1` was tested. Which “hERG current change (%, negative = inhibition) at 10uM” value did it give?
A: -20.4%

Q: For `CCCCNc1nc(Cl)nc(Nc2ccc(C)cc2)n1`, which “hERG current change (%, negative = inhibition) at 10uM” value is on record?
A: 9.58%

Q: `CN(C)c1cc(NC(=O)CN2CCCC2)c2ccccc2n1.O=C(O)C(=O)O` was tested. Which “hERG current change (%, negative = inhibition) at 10uM” value did it give?
A: -10.3%

Q: With `O=C(Cn1c2c(c(-c3ccccc3Cl)cc1=O)CCC2)N1CCC2(CC1)OCCO2` as the compound, how does the “hERG current change (%, negative = inhibition) at 10uM” value read?
A: 0.878%

Q: Which “hERG current change (%, negative = inhibition) at 10uM” value does the source give for `CCOC(=O)N1CCC(NC(=O)c2ccc3c(c2)sc2nc(-c4ccccc4)cn23)CC1` here?
A: -17.5%

Q: How did the “hERG current change (%, negative = inhibition) at 10uM” value turn out when `Cc1ccc2nsnc2c1S(=O)(=O)N(Cc1cc2cccc(C)c2[nH]c1=O)CC1CCCO1` (stereo not drawn) was run?
A: 6.94%

Q: How did the “hERG current change (%, negative = inhibition) at 10uM” value turn out when `CCCCN(CCCC)S(=O)(=O)c1ccc(NS(=O)(=O)c2ccc(NC(C)=O)cc2)cc1` was run?
A: -9.78%

Q: Which “hERG current change (%, negative = inhibition) at 10uM” value does the source give for `Cn1c(-c2ccsc2)c(-c2cccs2)c2cc(-c3cccc4[nH]ccc34)ccc21` here?
A: 14.6%

Q: For `COc1ccc(S(=O)(=O)N(C)CC(=O)NCc2cccnc2)cc1Cl`, which “hERG current change (%, negative = inhibition) at 10uM” value is on record?
A: 6.77%

Q: With `Cc1cc(C(=O)Nc2ccc3c(c2)CCC3)c2ccccc2n1` as the compound, how does the “hERG current change (%, negative = inhibition) at 10uM” value read?
A: 10.8%

Q: For `COc1cccc(C(=O)Nc2cccc(-c3ccc(N4CCOCC4)nn3)c2)c1`, which “hERG current change (%, negative = inhibition) at 10uM” value is on record?
A: -7.68%

Q: Which “hERG current change (%, negative = inhibition) at 10uM” value does the source give for `CC(C)NC(=O)NNc1c(Cl)cncc1Cl` here?
A: 11.2%

Q: `CCOC(=O)C1CCN(c2c(NCCC(C)C)c(=O)c2=O)CC1` was tested. Which “hERG current change (%, negative = inhibition) at 10uM” value did it give?
A: -14.7%

Q: How did the “hERG current change (%, negative = inhibition) at 10uM” value turn out when `Cc1cc2occ(CC(=O)NNC(=O)c3ccccc3F)c2cc1C` was run?
A: 2.66%

Q: How did the “hERG current change (%, negative = inhibition) at 10uM” value turn out when `CCCOc1ccc(N2C(=O)CC(N3CCOCC3)C2=O)cc1` (stereo not drawn) was run?
A: -3.38%

Q: With `CCOC(=O)CC1=CC(C)(CC(=O)OCC)C(C#N)(C#N)C(N)=C1C#N` (stereo not drawn) as the compound, how does the “hERG current change (%, negative = inhibition) at 10uM” value read?
A: -3.35%

Q: For `CCN(CC)C(=O)C1CCCN(Cc2ccccc2)C1` (stereo not drawn), which “hERG current change (%, negative = inhibition) at 10uM” value is on record?
A: 9.57%

Q: Which “hERG current change (%, negative = inhibition) at 10uM” value does the source give for `CCNc1nc(NCC)n2c(SCC(=O)Nc3ccc(Br)cc3F)nnc2n1` here?
A: -30.3%

Q: For `COc1cc(S(=O)(=O)n2cnc(C)c2)ccc1Br`, which “hERG current change (%, negative = inhibition) at 10uM” value is on record?
A: 9.77%

Q: Which “hERG current change (%, negative = inhibition) at 10uM” value does the source give for `CC(=O)Nc1ccc(S(=O)(=O)N(Cc2ccccc2)c2ccccc2F)cc1` here?
A: 12.8%

Q: How did the “hERG current change (%, negative = inhibition) at 10uM” value turn out when `COc1ccccc1-c1nnc(SCC(=O)N2CCOCC2)o1` was run?
A: -1.56%

From publication PMC4336329 (PLoS ONE, 2015)
